B1: CPEB3 Ribozyme (parent)
chain: UAACAGGGGGCCACAGCAGAAGCGUUCACGUCGCAGCCCCUGUCAGAUUCUGGUGAAUCUGCGAAUUCUGCUGUAUAUCUC

Read counts are not given, so values of variants with three or more changes are uncertain.

This data set covers variants of B1. In words: self-cleavage, relative activity (ratio to wild type); higher = more cleavage; in vitro, sequencing. The essentials: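 After error-prone PCR and barcoding, CPEB3 ribozyme mutant libraries were transcribed with T7 RNA polymerase at 37°C for 5 hours, then given 15 min with DNase I before an EDTA stop, and they cleaved during both steps. Reverse transcription with template switching preceded Illumina sequencing. Relative activity divides a variant's cleaved/total read fraction by the unmutated ribozyme's. At least 5 reads were required per variant, and three batches were averaged.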
As to A20U A21G C29U U43C U49C A64G U78C, the self-cleavage is 0.1. The value for A20G U43A A45G U72G was 0.77; that for A20G U41C U51A C71A U72A was 0.37; that for A20G U51A U60G U78C was 0.35. The value for A20G U41G A56G was 0.27.

A20U U25A U43A A47G U60C G63C: the self-cleavage came to 0.05.

On to A20U G22U A65U U74C A75U, for which the self-cleavage was found to be 0.12. A20U U25A U41C: the self-cleavage stood at 0.27. The value for A20U A35G A57U A77G was 0.47; that for A20G U43C U51C A57G was 0.37. As for A20G U60C U76C U78C, the self-cleavage came out at 0.13. For A20U A21G G70U, the self-cleavage was determined as 0.21. The value for A20U G33U A35U U60A U69A A77U was 0.07. For A20U A28U U80A the value was 0.32; for A20G U54A U66A U78C, 0.3; for A20U U25C U43C C59U U67C U80C, 0.08. In the case of A20U A28G A35G U48C A56U, the self-cleavage came out at 0.04. Consider A20G U49A U58C, for which the self-cleavage worked out at 0.13. As for A20U A28G U78C, the self-cleavage worked out at 0.09.

Consider A20U G22A C39A U60A, for which the self-cleavage was 0.1. The value for A20U A28G U48C was 0.05.

Consider A20G U51C A65G, for which the self-cleavage amounted to 0.44.

With A20G U74C U76A, the self-cleavage amounted to 1.18. The value for A20U C37U U41A C62G U74G was 0.18. The value for A20U A28C A47G U76C was 0.27. The value for A20U A45U U49A was 0.07; that for A20U A21G U41C U54C was 0.4; that for A20U A28U U31C A45G U48C A56G was 0.21. With A20U C40G A64U U74A, the self-cleavage was determined as 0.27. For A20G U54A U74C U76C the value was 0.98; for A20U A28G U43C U60C, 0.06. For A20U U25C A45U U48C A64U U78C the value was 0.07. Regarding A20U A28C U41A A45C A64G U80C, the self-cleavage worked out at 0.05. As for A20U G33U U66C, the self-cleavage turned out to be 0.04. Consider A20G U43A U51A A57G, for which the self-cleavage came to 0.16. For the variant A20U C62U U72C A75G, the self-cleavage is 0.13.

On to A20U G30U U31C U49C U69A, for which the self-cleavage came to 0.17. The value for A20G U48C A75U was 0.65. The value for A20G U67C U78G was 0.81. For A20G U51C U58C the value was 0.43; for A20G U51C U60C, 0.29; for A20G U41C U49C U51C U60C U78C U80C, 0.11.

Turning to A20U A57G U66A, the self-cleavage came out at 0.31. The value for A20U A35U A77U was 0.22. The value for A20G U41C G52C was 1.03; that for A20U U25C A45U U60G A64G was 0.04; that for A20G U41G G73U U80G was 0.34.

Consider A20G U48C U67C U80C, for which the self-cleavage is 0.39. For A20U A21G U25C U41A G42C U66C U72G the value was 0.05; for A20U A21G U72C, 0.45; for A20U A45G G46U, 0.27. With A20U A21G A28G, the self-cleavage worked out at 0.05.

Turning to A20U A28U A77U, the self-cleavage turned out to be 0.4.

As for A20U C37A C39A U67C, the self-cleavage stood at 0.09. Take A20G U51A C68U U72A U74C: the self-cleavage stood at 0.63. As to A20G U48C U58C U74C, the self-cleavage amounted to 0.18. For A20U A47G A75G the value was 0.42; for A20U A45U U66C, 0.17. Regarding A20U A28G U31A A57G A65G U72C, the self-cleavage came to 0.06. Take A20G U54A A64G A65G: the self-cleavage was determined as 0.16. For A20G U41C C68G U69A U78C the value was 0.22; for A20G U67A U72C, 0.58; for A20G U54C G55U U60C U72C, 0.12. For A20U U25A U67A the value was 0.24; for A20U G46C A64U, 0.08. For A20U C23U U66C U69A U72A the value was 0.18; for A20U G22A A47G, 0.06.

As for A20U A45G U78C, the self-cleavage is 0.23. A20U A45U U69G: the self-cleavage was 0.12. The value for A20U U25A G33A A65G was 0.08; that for A20G U48A U66C U69C C71G was 0.07.

In the case of A20U A56G U69A U80C, the self-cleavage amounted to 0.17. The value for A20G U43A U51C was 1.07; that for A20G U43C A57G A77G was 0.18; that for A20U G63A U67A U80C was 1.1. For A20U A28G U31C A56G U74C A75U the value was 0.09; for A20U A47G U48A U69A A75G, 0.03; for A20G U48C A57C, 0.28.

As to A20U G33A C62U, the self-cleavage was 0.05. For A20G U66C U72A the value was 0.32; for A20G U41C U43C A75G, 0.41. For A20U G55A U74A U78C the value was 0.18; for A20G U72C U80C, 1.14. The value for A20U A21G U41A U54C was 0.05; that for A20U U25C U31A U49C was 0.18; that for A20U A21G A28U U41C U72C was 0.2.

For the variant A20U A35U U41C U78A, the self-cleavage is 0.08. For A20U G24A U25C G33A U49C the value was 0.14. The value for A20U U25C A28U U66C U80A was 0.07; that for A20U U25C G33A was 0.33; that for A20U G52U U54G A57G was 0.18. For A20G U51G U60C the value was 0.3. As to A20G U41C C81A, the self-cleavage is 1.09. The value for A20G U41C C81U was 1.1; that for A20G U69C U80A was 0.69. The value for A20G U43C U69C A77U was 0.2; that for A20U C27A A57G was 0.14; that for A20U G46A U69C was 0.16.

For A20U G24A U41A U69C, the self-cleavage was found to be 0.1.

In the case of A20U G30A A64G, the self-cleavage came to 0.18. For A20G U60C U67C the value was 0.4; for A20U A35G G46A U72C, 0.18. The value for A20G U43A U54C was 0.59; that for A20G U60A G61U was 0.04; that for A20G U43A A56U was 0.34. The value for A20G U43A A56G was 0.93; that for A20G U60G U80C was 0.62; that for A20G U43G U54C A65G was 0.35. As for A20U A35G G36C, the self-cleavage is 0.11. Take A20G U41C A64G C68G U74A: the self-cleavage was determined as 0.1. For the variant A20U A28G U51C U54C U80C, the self-cleavage came to 0.1. For A20G U49A U54C A64G A75U the value was 0.58; for A20U G42A A77U, 0.16. For A20G U41C U51C the value was 1.07; for A20U A35G A47G U78C, 0.32; for A20G U54C U76A, 0.91. The value for A20G U54C U76C was 0.99; that for A20G U41C U54C was 0.72.

A20G U54G U60C U80C: the self-cleavage amounted to 0.14. The value for A20U A28G G46U A64U was 0.09; that for A20U G36C U41C U49C U80C was 0.26. Consider A20G U51G A65G, for which the self-cleavage was 0.37. A20U A21G U67C U78A: the self-cleavage was 0.05.

With A20U A56G A77G, the self-cleavage amounted to 0.14.

As for A20U A28U A57G, the self-cleavage is 0.14.

Consider A20U U25C U41C A45C C62U, for which the self-cleavage was 0.08. The value for A20U A56U U60C U69A was 0.11. On to A20U G52A U76A, for which the self-cleavage came to 0.34. For A20G U72C A75U the value was 1.02. The value for A20U A28G U48C G63A U66G A77G was 0; that for A20G U54G U69A was 0.23; that for A20U G24A A28G U43C U66C was 0.11.

On to A20U U25C U41C A56G U72C, for which the self-cleavage worked out at 0.06. The value for A20U C39U A56U U72A was 0.08; that for A20U A47G U78C was 0.2. A20U C37G U49A U76C: the self-cleavage stood at 0.15. On to A20G U60C A64G U80C, for which the self-cleavage turned out to be 0.19.

For A20U G30C G52C, the self-cleavage stood at 0.08. The value for A20U A35U U60C U80A was 0.08. The value for A20U A45G U72C U78C was 0.34; that for A20U A35U G53A was 0.1; that for A20U C40U G52A was 0.42.

As for A20G U43C G63U, the self-cleavage was 0.24. For A20G U49C U72A the value was 0.07; for A20G U49A U69A, 0.26; for A20G U43C U49A U69G U80C, 0.17. A20U A28U C39A U48A A56U U60G: the self-cleavage stood at 0.07. The value for A20U A28G A57G was 0.31; that for A20U A21G G24A A35G U43A G52A A56G was 0.04.

For the variant A20U A28G U41A, the self-cleavage was 0.06.

As to A20G U51A A56G, the self-cleavage was 0.2. On to A20G U49A A64G U69A, for which the self-cleavage amounted to 0.29.

A20U A21C U26C A57G: the self-cleavage came out at 0.16. The value for A20U A45U A47G was 0.12.

Regarding A20U U25C U51C U54C, the self-cleavage came to 0.1. The value for A20U A35G A45U U58C C59A U76C was 0.17; that for A20U U25C A35G C50U was 0.25; that for A20G U54C U72C was 0.97.

Turning to A20U A21G U51C, the self-cleavage was determined as 0.23.

Regarding A20U A56U A65G U67C A75U, the self-cleavage stood at 0.21.

Consider A20G U41C U51A A65G A77U, for which the self-cleavage turned out to be 0.46.

As for A20G U58G A77U, the self-cleavage was 0.2. As for A20U A21G G61A, the self-cleavage turned out to be 0.16.

In the case of A20U A28G U31C G33A U58C U74A U78A, the self-cleavage was found to be 0.17. For A20U A35U U41C the value was 0.18; for A20U U26A A45G, 0.11; for A20G U72C U78A, 1.12.

The values above are taken from the RNAGym collection of RNA variant scans (doi:10.1093/nar/gkz1192).
